# According to the supplement of paper PMC8728848:
# The list shows a part of the results.
# Experiments:
# Assay in all cases: glycan array binding signal (z-score within array); higher = stronger binding
# Conditions in all cases: glycan notation: IUPAC condensed, linker removed
# [1] = molecular target: Fuc(a1-2)[GalNAc(b1-3)]Gal
# Procedure, shortened: (§1)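 Columns mapping to the same glycan were averaged after glycan names were converted to IUPAC-condensed notation. The data come from 3228 arrays in the Consortium for Functional Glycomics database, limited to those with an available protein sequence. Binding is reported as a within-array Z-score averaged across arrays of one protein sequence and across linkers.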
# Fuc(a1-3)GlcNAc = molecular target: Fuc(a1-3)GlcNAc
# Procedure, shortened: as §1
# [2] = molecular target: Fuc(a1-3)[Gal(b1-4)]Glc6S
# Procedure, shortened: as §1
# [3] = molecular target: Fuc(a1-3)[Gal(b1-4)]GlcNAc
# Procedure, shortened: as §1
# [4] = molecular target: Fuc(a1-3)[Gal(b1-4)]GlcNAc(b1-2)Man
# Procedure, shortened: as §1
# [5] = molecular target: Fuc(a1-3)[Gal(b1-4)]GlcNAc(b1-2)Man(a1-3)[Fuc(a1-3)[Gal(b1-4)]GlcNAc(b1-2)Man(a1-6)]Man(b1-4)GlcNAc(b1-4)GlcNAc
# Procedure, shortened: as §1
# [6] = molecular target: Fuc(a1-3)[Gal(b1-4)]GlcNAc(b1-2)Man(a1-3)[Fuc(a1-3)[Gal(b1-4)]GlcNAc(b1-2)Man(a1-6)]Man(b1-4)GlcNAc(b1-4)[Fuc(a1-6)]GlcNAc
# Procedure, shortened: as §1
# [7] = molecular target: Fuc(a1-3)[Gal(b1-4)]GlcNAc(b1-3)Gal(b1-3)[Fuc(a1-4)]GlcNAc
# Procedure, shortened: as §1
# [8] = molecular target: Fuc(a1-3)[Gal(b1-4)]GlcNAc(b1-3)Gal(b1-4)[Fuc(a1-3)]GlcNAc
# Procedure, shortened: as §1
# [9] = molecular target: Fuc(a1-3)[Gal(b1-4)]GlcNAc(b1-3)Gal(b1-4)[Fuc(a1-3)]GlcNAc(b1-3)Gal(b1-4)[Fuc(a1-3)]GlcNAc
# Procedure, shortened: as §1
# [10] = molecular target: Fuc(a1-3)[Gal(b1-4)]GlcNAc(b1-3)GalNAc
# Procedure, shortened: as §1
# [11] = molecular target: Fuc(a1-3)[Gal(b1-4)]GlcNAc(b1-6)GalNAc
# Procedure, shortened: as §1
# [12] = molecular target: Fuc(a1-3)[Gal(b1-4)]GlcNAc(b1-6)[Gal(b1-3)GlcNAc(b1-3)]Gal(b1-4)Glc
# Procedure, shortened: as §1
# [13] = molecular target: Fuc(a1-3)[Gal(b1-4)]GlcNAc6S
# Procedure, shortened: as §1
# [14] = molecular target: Fuc(a1-3)[Gal3S(b1-4)]Glc
# Procedure, shortened: as §1
# [15] = molecular target: Fuc(a1-3)[Gal3S(b1-4)]GlcNAc
# Procedure, shortened: as §1
# [16] = molecular target: Fuc(a1-3)[Gal3S(b1-4)]GlcNAc6S
# Procedure, shortened: as §1
# [17] = molecular target: Fuc(a1-3)[GalNAc(b1-4)]GlcNAc
# Procedure, shortened: as §1
# [18] = molecular target: Fuc(a1-3)[GalNAc(b1-4)]GlcNAc6S
# Procedure, shortened: as §1
# Fuc(a1-4)GlcNAc = molecular target: Fuc(a1-4)GlcNAc
# Procedure, shortened: as §1
# Fuc(b1-3)GlcNAc = molecular target: Fuc(b1-3)GlcNAc
# Procedure, shortened: as §1
# Gal(a1-2)Gal = molecular target: Gal(a1-2)Gal
# Procedure, shortened: as §1
# Gal(a1-3)Gal = molecular target: Gal(a1-3)Gal
# Procedure, shortened: as §1
# Gal(a1-3)Gal(b1-3)GlcNAc = molecular target: Gal(a1-3)Gal(b1-3)GlcNAc
# Procedure, shortened: as §1
# [19] = molecular target: Gal(a1-3)Gal(b1-3)GlcNAc(b1-2)Man
# Procedure, shortened: as §1
# [20] = molecular target: Gal(a1-3)Gal(b1-3)GlcNAc(b1-2)Man(a1-3)[Gal(a1-3)Gal(b1-3)GlcNAc(b1-2)Man(a1-6)]Man(b1-4)GlcNAc(b1-4)GlcNAc
# Procedure, shortened: as §1
# [21] = molecular target: Gal(a1-3)Gal(b1-3)GlcNAc(b1-3)GalNAc
# Procedure, shortened: as §1
# [22] = molecular target: Gal(a1-3)Gal(b1-3)GlcNAc(b1-6)GalNAc
# Procedure, shortened: as §1
# [23] = molecular target: Gal(a1-3)Gal(b1-3)[Fuc(a1-4)]GlcNAc(b1-2)Man(a1-3)[Gal(a1-3)Gal(b1-3)[Fuc(a1-4)]GlcNAc(b1-2)Man(a1-6)]Man(b1-4)GlcNAc(b1-4)GlcNAc
# Procedure, shortened: as §1
# Gal(a1-3)Gal(b1-4)Glc = molecular target: Gal(a1-3)Gal(b1-4)Glc
# Procedure, shortened: as §1
# Gal(a1-3)Gal(b1-4)GlcNAc = molecular target: Gal(a1-3)Gal(b1-4)GlcNAc
# Procedure, shortened: as §1
# [24] = molecular target: Gal(a1-3)Gal(b1-4)GlcNAc(b1-2)Man
# Procedure, shortened: as §1
# [25] = molecular target: Gal(a1-3)Gal(b1-4)GlcNAc(b1-2)Man(a1-3)[Gal(a1-3)Gal(b1-4)GlcNAc(b1-2)Man(a1-6)]Man(b1-4)GlcNAc(b1-4)GlcNAc
# Procedure, shortened: as §1
# [26] = molecular target: Gal(a1-3)Gal(b1-4)GlcNAc(b1-3)GalNAc
# Procedure, shortened: as §1
# [27] = molecular target: Gal(a1-3)Gal(b1-4)GlcNAc(b1-6)GalNAc
# Procedure, shortened: as §1
# [28] = molecular target: Gal(a1-3)Gal(b1-4)[Fuc(a1-3)]GlcNAc
# Procedure, shortened: as §1
# [29] = molecular target: Gal(a1-3)Gal(b1-4)[Fuc(a1-3)]GlcNAc(b1-2)Man(a1-3)[Gal(a1-3)Gal(b1-4)[Fuc(a1-3)]GlcNAc(b1-2)Man(a1-6)]Man(b1-4)GlcNAc(b1-4)GlcNAc
# Procedure, shortened: as §1
# Gal(a1-3)GalNAc = molecular target: Gal(a1-3)GalNAc
# Procedure, shortened: as §1
# [30] = molecular target: Gal(a1-3)[Gal(a1-4)]Gal(b1-4)GlcNAc
# Procedure, shortened: as §1
# [31] = molecular target: Gal(a1-4)Gal(b1-3)GlcNAc(b1-2)Man(a1-3)[Gal(a1-4)Gal(b1-3)GlcNAc(b1-2)Man(a1-6)]Man(b1-4)GlcNAc(b1-4)GlcNAc
# Procedure, shortened: as §1
# Gal(a1-4)Gal(b1-4)Glc = molecular target: Gal(a1-4)Gal(b1-4)Glc
# Procedure, shortened: as §1
# Gal(a1-4)Gal(b1-4)GlcNAc = molecular target: Gal(a1-4)Gal(b1-4)GlcNAc
# Procedure, shortened: as §1
# [32] = molecular target: Gal(a1-4)Gal(b1-4)GlcNAc(b1-2)Man(a1-3)[Gal(a1-4)Gal(b1-4)GlcNAc(b1-2)Man(a1-6)]Man(b1-4)GlcNAc(b1-4)GlcNAc
# Procedure, shortened: as §1
# [33] = molecular target: Gal(a1-4)Gal(b1-4)GlcNAc(b1-3)Gal(b1-4)Glc
# Procedure, shortened: as §1
# Gal(a1-4)GlcNAc = molecular target: Gal(a1-4)GlcNAc
# Procedure, shortened: as §1
binder,measurement,setting,value
CpGal16 (Clavelina picta) (protein) MAKMITNYVGKRIECIMVATDMMSTVFSLASATGDLPFYINFRQRENSIVMNTRVHGKWQYEKSQSSGGMNFYEPFRLVVEVRPSVFKVTVSTMGEEDGITFNLQYSQITIKPDEIVAMHLGYCNLRSELLVTDL,glycan array binding signal (z-score),[1],-0.37
same,glycan array binding signal (z-score),Fuc(a1-3)GlcNAc,-0.387
same,glycan array binding signal (z-score),[2],-0.345
same,glycan array binding signal (z-score),[3],-0.419
same,glycan array binding signal (z-score),[4],-0.436
same,glycan array binding signal (z-score),[5],-0.517
same,glycan array binding signal (z-score),[6],-0.251
same,glycan array binding signal (z-score),[7],-0.257
same,glycan array binding signal (z-score),[8],-0.333
same,glycan array binding signal (z-score),[9],-0.367
same,glycan array binding signal (z-score),[10],-0.233
same,glycan array binding signal (z-score),[11],-0.194
same,glycan array binding signal (z-score),[12],0.641
same,glycan array binding signal (z-score),[13],-0.08
same,glycan array binding signal (z-score),[14],-0.242
same,glycan array binding signal (z-score),[15],-0.231
same,glycan array binding signal (z-score),[16],-0.265
same,glycan array binding signal (z-score),[17],0.077
same,glycan array binding signal (z-score),[18],-0.21
same,glycan array binding signal (z-score),Fuc(a1-4)GlcNAc,0.069
same,glycan array binding signal (z-score),Fuc(b1-3)GlcNAc,-0.31
same,glycan array binding signal (z-score),Gal(a1-2)Gal,-0.353
same,glycan array binding signal (z-score),Gal(a1-3)Gal,-0.36
same,glycan array binding signal (z-score),Gal(a1-3)Gal(b1-3)GlcNAc,1.01
same,glycan array binding signal (z-score),[19],1.68
same,glycan array binding signal (z-score),[20],-0.196
same,glycan array binding signal (z-score),[21],0.115
same,glycan array binding signal (z-score),[22],1.66
same,glycan array binding signal (z-score),[23],-0.202
same,glycan array binding signal (z-score),Gal(a1-3)Gal(b1-4)Glc,0.403
same,glycan array binding signal (z-score),Gal(a1-3)Gal(b1-4)GlcNAc,-0.332
same,glycan array binding signal (z-score),[24],-0.009
same,glycan array binding signal (z-score),[25],1.84
same,glycan array binding signal (z-score),[26],-0.282
same,glycan array binding signal (z-score),[27],-0.315
same,glycan array binding signal (z-score),[28],-0.491
same,glycan array binding signal (z-score),[29],-0.152
same,glycan array binding signal (z-score),Gal(a1-3)GalNAc,-0.34
same,glycan array binding signal (z-score),[30],0.21
same,glycan array binding signal (z-score),[31],-0.186
same,glycan array binding signal (z-score),Gal(a1-4)Gal(b1-4)Glc,-0.094
same,glycan array binding signal (z-score),Gal(a1-4)Gal(b1-4)GlcNAc,-0.382
same,glycan array binding signal (z-score),[32],-0.117
same,glycan array binding signal (z-score),[33],-0.233
same,glycan array binding signal (z-score),Gal(a1-4)GlcNAc,-0.201
